# From the BET-seq Pho4 binding data (Le et al. 2018)
# Some of the results follow. The energies were worked out here from pooled read counts, against the library average; single values are noisy.
# Target: T1, Pho4 (S. cerevisiae) (UniProt P07270)
# T1 sequence: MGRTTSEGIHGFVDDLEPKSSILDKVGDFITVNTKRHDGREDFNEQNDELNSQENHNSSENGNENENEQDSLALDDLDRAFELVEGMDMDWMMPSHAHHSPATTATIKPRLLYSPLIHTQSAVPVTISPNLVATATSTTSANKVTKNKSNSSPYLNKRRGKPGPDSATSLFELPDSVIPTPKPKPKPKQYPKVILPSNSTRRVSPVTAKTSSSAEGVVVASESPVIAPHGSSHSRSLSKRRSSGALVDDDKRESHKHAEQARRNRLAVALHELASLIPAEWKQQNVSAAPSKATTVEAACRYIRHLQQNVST
# Test: relative binding free energy (BET-seq); higher = weaker binding
# Details: reference: library average
row,Sequence,relative binding free energy [kcal/mol]
1,TGATTCACGTGTGCAG,0.13
2,TGGCGCACGTGGGTTT,-0.24
3,GGAGCCACGTGTTGGT,0.01
4,GGATTCACGTGGGCAG,0.11
5,GGAATCACGTGAGGTA,0.35
6,TGATGCACGTGAAGAA,0.39
7,TGAATCACGTGGGTGT,-0.01
8,TGTTTCACGTGTATGC,0.31
9,GGACACACGTGAGGTG,0.29
10,TGAATCACGTGGGAGG,0.03
11,GGAGGCACGTGAGAAG,0.14
12,AGGAGCACGTGGACTG,-0.06
13,ATAGTCACGTGTTATG,0.13
14,TGGTTCACGTGATTCA,0.29
15,TTATGCACGTGAGCAG,0.23
16,TGGTTCACGTGACTTT,0.4
17,TGTGCCACGTGTGAAT,0.08
18,AATTGCACGTGGTTAA,-0.02
19,CAGGGCACGTGATTTT,0.01
20,CTACGCACGTGGTGTG,-0.22
21,CTGGGCACGTGTCGTA,-0.08
22,CCGGGCACGTGGGGTT,-0.33
23,GAGGGCACGTGCGCTG,-0.18

row,Sequence,relative binding free energy [kcal/mol]
1,GGTTGCACGTGAACAG,0.3
2,TTTAGCACGTGCAATG,0.03
3,ATCGTCACGTGCTGTG,-0.05
4,GGTTGCACGTGGGTAT,-0.03
5,TTAATCACGTGTAGGA,0.03
6,CTTGGCACGTGTTTTC,-0.05
7,CTTTTCACGTGCTTTT,0.21
8,GATGTCACGTGTCGTG,0.14
9,AAGGGCACGTGGGAGT,-0.21
10,TTTAGCACGTGATGAT,0.2
11,CTGTACACGTGGGTAT,-0.14
12,GGTGGCACGTGAGGTG,0.2
13,GCCGTCACGTGTAGGG,0.17
14,GAAATCACGTGGGTTA,0.01
15,TGCATCACGTGTTGAT,0.17
16,CTTATCACGTGCGGGG,0.01
17,AGGGGCACGTGTCGCG,-0.12
18,GTAGTCACGTGTAGAA,0.14
19,CTGCGCACGTGTGGTA,-0.09
20,TTGCTCACGTGAAGCG,0.53
21,GTTGTCACGTGGCGGG,0.1
22,AAGAACACGTGAGGGA,0.38
23,TTATTCACGTGTGCTC,0.21

row,Sequence,relative binding free energy [kcal/mol]
1,GCAGTCACGTGAGGGG,0.31
2,GTGTGCACGTGGCCTG,-0.12
3,GGTTTCACGTGACGAG,0.39
4,CTGACCACGTGGGGGG,-0.29
5,AGCGGCACGTGCAGGT,-0.26
6,AATTACACGTGAGTTA,0.29
7,CCAGGCACGTGGGGAG,-0.3
8,CGGTGCACGTGGTGCT,-0.17
9,ATTATCACGTGGTAGG,0.03
10,CTTGGCACGTGATCGT,0.02
11,ATTTACACGTGGTGGA,0.08
12,AATATCACGTGGAGAG,0.25
13,TTTCGCACGTGGTAAG,-0.08
14,GTTGTCACGTGAGCAG,0.18
15,AGTATCACGTGTTGTC,0.11
16,GGTTGCACGTGGGAGC,-0.07
17,GGAATCACGTGGAAGG,0.19
18,TATATCACGTGTTTGA,0.1
19,CTCAGCACGTGGATGG,0.09
20,TAGATCACGTGTGGGA,0.1
21,ATGCTCACGTGTTGTT,0.09
22,TATGTCACGTGAGGGA,0.2
23,TGGGGCACGTGTGGCA,0.02

row,Sequence,relative binding free energy [kcal/mol]
1,TTTTTCACGTGTAAGA,0.47
2,AAAGTCACGTGCTTGG,-0.06
3,ATGTGCACGTGTTGCC,0.05
4,ATGAGCACGTGTGGCA,0.09
5,AGTCACACGTGCTGGG,0.1
6,GCTAACACGTGGAGGG,0.17
7,GTTAACACGTGGGTCT,0.05
8,GTGCGCACGTGATATG,0.07
9,CTAGCCACGTGGGAGG,-0.13
10,AATAACACGTGGTGTG,-0.12
11,TATGACACGTGGTGAA,0.08
12,ATAGTCACGTGAAAGG,0.25
13,TTAAGCACGTGTAACG,0.23
14,TGCTGCACGTGCGTGT,-0.12
15,CAGGGCACGTGAGTGG,0.12
16,TTGCGCACGTGATTTA,0.08
17,TTATTCACGTGGCGTC,0.3
18,TGGTTCACGTGCTATA,0.19
19,TCATACACGTGGTTGT,-0.1
20,TGTGTCACGTGGTTAA,0.11
21,GACTGCACGTGGATGT,0.01
22,CTGTGCACGTGCGGGG,-0.03
23,ACGGGCACGTGGCTTT,-0.09

row,Sequence,relative binding free energy [kcal/mol]
1,ATATTCACGTGGGTTT,0.17
2,TAGTGCACGTGGTTAC,-0.1
3,GGCTTCACGTGGGTAT,0.1
4,AGGTGCACGTGAATGA,0.12
5,AGGTGCACGTGTATCT,-0.01
6,CTTGTCACGTGGGGAG,-0.14
7,ACAGTCACGTGAAGTT,0.39
8,GTAATCACGTGTGGTA,0.21
9,TGTTACACGTGGATCG,0.08
10,TTTAACACGTGAAATT,0.27
11,GAGTTCACGTGCGGGA,0.22
12,AATGTCACGTGTTCTG,0.15
13,ATATACACGTGAGGAG,0.19
14,GGTCACACGTGGGTAT,0.01
15,CTGTGCACGTGGTATA,-0.25
16,GGATTCACGTGGTGGC,0.43
17,GAGTGCACGTGGATGG,0.09
18,ATTGGCACGTGCGAGA,-0.16
19,AACTGCACGTGCGGGG,-0.05
20,TGTGGCACGTGAGCTT,0.05
21,GTTTCCACGTGTTGGA,0.2
22,GTTGTCACGTGAACGA,0.31
23,GATATCACGTGATGTG,0.23
